Residue numbers refer to the chain shown, from its start. The list shows a part of the results.
T1: RBFOX1 RRM (Homo sapiens, UniProt Q9NWB1 109-208)
T1 sequence: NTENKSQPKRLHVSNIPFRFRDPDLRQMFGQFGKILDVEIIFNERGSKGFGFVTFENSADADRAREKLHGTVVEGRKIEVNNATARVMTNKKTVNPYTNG

B1: GCAUAUG (DNA:RNA)
RNA: GGGAGACCGGAAUUCAGAUUGUCCGCAUAUGUUAAAUCCCGUCGUAGCCACCA
DNA 1: CAATCTGAATTCCGGTCTCCC
DNA 2: TGGTGGCTACGACGGGATT
B2: GCAAGCC (DNA:RNA)
RNA: B1 RNA with U28A, A29G, U30C, G31C
DNA 1: CAATCTGAATTCCGGTCTCCC
DNA 2: TGGTGGCTACGACGGGATT
B3: CUGAUGA (DNA:RNA)
RNA: GGGAGACCGGAAUUCAGAUUGUCCCUGAUGAUUAAAUCCCGUCGUAGCCACCA
DNA 1: CAATCTGAATTCCGGTCTCCC
DNA 2: TGGTGGCTACGACGGGATT
B4: UUAUACC (DNA:RNA)
RNA: B1 RNA with G25U, C26U, U30C, G31C
DNA 1: CAATCTGAATTCCGGTCTCCC
DNA 2: TGGTGGCTACGACGGGATT
B5: AUAUUAA (DNA:RNA)
RNA: B3 RNA with C25A, G27A, A28U, G30A
DNA 1: CAATCTGAATTCCGGTCTCCC
DNA 2: TGGTGGCTACGACGGGATT
B6: CUUCUGC (DNA:RNA)
RNA: B3 RNA with G27U, A28C, A31C
DNA 1: CAATCTGAATTCCGGTCTCCC
DNA 2: TGGTGGCTACGACGGGATT
B7: CGAGCCC (DNA:RNA)
RNA: B3 RNA with U26G, G27A, A28G, U29C, G30C, A31C
DNA 1: CAATCTGAATTCCGGTCTCCC
DNA 2: TGGTGGCTACGACGGGATT
B8: ACGGGCU (DNA:RNA)
RNA: B3 RNA with C25A, U26C, A28G, U29G, G30C, A31U
DNA 1: CAATCTGAATTCCGGTCTCCC
DNA 2: TGGTGGCTACGACGGGATT
B9: CCUUCAG (DNA:RNA)
RNA: B1 RNA with G25C, A27U, A29C, U30A
DNA 1: CAATCTGAATTCCGGTCTCCC
DNA 2: TGGTGGCTACGACGGGATT
B10: GGAUUUA (DNA:RNA)
RNA: B1 RNA with C26G, A29U, G31A
DNA 1: CAATCTGAATTCCGGTCTCCC
DNA 2: TGGTGGCTACGACGGGATT
B11: AUAGAUA (DNA:RNA)
RNA: B1 RNA with G25A, C26U, U28G, G31A
DNA 1: CAATCTGAATTCCGGTCTCCC
DNA 2: TGGTGGCTACGACGGGATT
B12: ACUUCAC (DNA:RNA)
RNA: B1 RNA with G25A, A27U, A29C, U30A, G31C
DNA 1: CAATCTGAATTCCGGTCTCCC
DNA 2: TGGTGGCTACGACGGGATT
B13: UGUUCUU (DNA:RNA)
RNA: B1 RNA with G25U, C26G, A27U, A29C, G31U
DNA 1: CAATCTGAATTCCGGTCTCCC
DNA 2: TGGTGGCTACGACGGGATT
B14: CUUCGGA (DNA:RNA)
RNA: B3 RNA with G27U, A28C, U29G
DNA 1: CAATCTGAATTCCGGTCTCCC
DNA 2: TGGTGGCTACGACGGGATT
B15: CUCUGUG (DNA:RNA)
RNA: B1 RNA with G25C, C26U, A27C, A29G
DNA 1: CAATCTGAATTCCGGTCTCCC
DNA 2: TGGTGGCTACGACGGGATT
B16: ACUGGGA (DNA:RNA)
RNA: B3 RNA with C25A, U26C, G27U, A28G, U29G
DNA 1: CAATCTGAATTCCGGTCTCCC
DNA 2: TGGTGGCTACGACGGGATT
B17: GGUGCAA (DNA:RNA)
RNA: B3 RNA with C25G, U26G, G27U, A28G, U29C, G30A
DNA 1: CAATCTGAATTCCGGTCTCCC
DNA 2: TGGTGGCTACGACGGGATT
B18: GGCACGU (DNA:RNA)
RNA: B3 RNA with C25G, U26G, G27C, U29C, A31U
DNA 1: CAATCTGAATTCCGGTCTCCC
DNA 2: TGGTGGCTACGACGGGATT
B19: UUUAGGU (DNA:RNA)
RNA: B3 RNA with C25U, G27U, U29G, A31U
DNA 1: CAATCTGAATTCCGGTCTCCC
DNA 2: TGGTGGCTACGACGGGATT
B20: AAAGGCC (DNA:RNA)
RNA: B1 RNA with G25A, C26A, U28G, A29G, U30C, G31C
DNA 1: CAATCTGAATTCCGGTCTCCC
DNA 2: TGGTGGCTACGACGGGATT

Molecular target: T1, RBFOX1 RRM
Experiment: EMSA; HiTS-Eq, 1 nM pool, 10 min; buffer printed only for the single-RNA assays: 10 mM Tris pH 7.5, 150 mM NaCl, 3.4 mM EDTA, 0.001% NP-40, 30 C
Details: tags: His6 N-terminal (pET28a); label: 5' 32P
Method in brief: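 Purified wild-type or mutant RbFox RRM at increasing concentrations was equilibrated with 1 nM of 5′-radiolabelled RNA carrying 7 randomized nucleotides for 10 min in 50 µL. Unbound RNA was separated by 8% native PAGE and sequenced. Relative association constants came from read-count changes of each RNA species compared with the control reaction, normalised to the cognate motif.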

Row | Binder | binding signal
1 | B1 | 0.00982 KA relative to UGCAUGU
2 | B2 | 0.00998 KA relative to UGCAUGU
3 | B3 | 0.0162 KA relative to UGCAUGU
4 | B4 | 0.00397 KA relative to UGCAUGU
5 | B5 | 0.00122 KA relative to UGCAUGU
6 | B6 | 0.0231 KA relative to UGCAUGU
7 | B7 | 0.00653 KA relative to UGCAUGU
8 | B8 | 0.0114 KA relative to UGCAUGU
9 | B9 | 0.00838 KA relative to UGCAUGU
10 | B10 | 0.0096 KA relative to UGCAUGU
11 | B11 | 0.0024 KA relative to UGCAUGU
12 | B12 | 0.000936 KA relative to UGCAUGU
13 | B13 | 0.0179 KA relative to UGCAUGU
14 | B14 | 0.00606 KA relative to UGCAUGU
15 | B15 | 0.0157 KA relative to UGCAUGU
16 | B16 | 0.0102 KA relative to UGCAUGU
17 | B17 | 0.0092 KA relative to UGCAUGU
18 | B18 | 0.0321 KA relative to UGCAUGU
19 | B19 | 0.0106 KA relative to UGCAUGU
20 | B20 | 0.00783 KA relative to UGCAUGU

From article PMC9911399, “Two distinct binding modes provide the RNA-binding protein RbFox with extraordinary sequence specificity”
